Assay results: PMC9827817
No constants are given. Whether binding was seen depends on the method and setting. In cells and extracts the contact can be indirect. Some binding calls cover weakened binding; strength is not graded here. For some of these results: Sequences can lack the tags named with a protein.

By UniProt entry, the sequences of proteins in these tests, tags left out.
UniProt Q9ULV4: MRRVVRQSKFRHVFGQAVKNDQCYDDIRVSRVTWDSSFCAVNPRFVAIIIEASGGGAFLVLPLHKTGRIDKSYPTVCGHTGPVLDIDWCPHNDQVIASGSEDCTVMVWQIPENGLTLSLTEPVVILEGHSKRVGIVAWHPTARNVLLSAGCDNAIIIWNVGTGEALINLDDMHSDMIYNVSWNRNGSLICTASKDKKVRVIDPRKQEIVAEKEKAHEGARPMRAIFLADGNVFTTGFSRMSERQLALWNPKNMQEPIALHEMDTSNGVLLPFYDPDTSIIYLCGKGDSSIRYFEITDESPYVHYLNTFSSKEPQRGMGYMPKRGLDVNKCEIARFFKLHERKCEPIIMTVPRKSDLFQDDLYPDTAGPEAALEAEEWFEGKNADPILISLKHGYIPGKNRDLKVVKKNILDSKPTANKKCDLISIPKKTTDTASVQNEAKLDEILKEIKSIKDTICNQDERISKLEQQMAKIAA
UniProt Q9P258: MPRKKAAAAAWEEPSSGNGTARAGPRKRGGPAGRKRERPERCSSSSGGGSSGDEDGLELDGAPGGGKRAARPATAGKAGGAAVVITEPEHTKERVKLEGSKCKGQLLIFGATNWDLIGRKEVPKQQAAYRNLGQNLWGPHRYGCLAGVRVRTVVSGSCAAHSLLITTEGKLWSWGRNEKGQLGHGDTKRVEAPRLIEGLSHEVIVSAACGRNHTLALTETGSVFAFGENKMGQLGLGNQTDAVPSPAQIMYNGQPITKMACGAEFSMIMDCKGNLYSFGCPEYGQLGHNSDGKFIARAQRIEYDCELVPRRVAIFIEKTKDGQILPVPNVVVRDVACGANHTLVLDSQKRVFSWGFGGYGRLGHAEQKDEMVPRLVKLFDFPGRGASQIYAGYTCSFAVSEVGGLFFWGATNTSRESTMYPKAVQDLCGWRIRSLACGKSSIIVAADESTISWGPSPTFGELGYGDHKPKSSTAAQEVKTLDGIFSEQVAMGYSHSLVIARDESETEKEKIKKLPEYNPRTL
UniProt P63172: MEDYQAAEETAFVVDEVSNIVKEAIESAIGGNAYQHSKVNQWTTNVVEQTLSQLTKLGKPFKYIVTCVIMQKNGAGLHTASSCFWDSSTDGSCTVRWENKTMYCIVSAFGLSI

How the values were obtained:
[1] = molecular target: CORO1C in gastric cancer cell lysate (human (endogenous in SGC-7901 and BGC-823)) (UniProt Q9ULV4); test: co-IP; gastric cancer cell lysates (25 mM Tris pH 7.6, 150 mM NaCl, 1% Nonidet P-40, 1 mM EDTA); protein A agarose preloaded with antibodies or normal IgG, overnight at 4°C; western blot; some in cells overexpressing PAK4S99A or PAK4S99D
[2] = molecular target: RCC2 in SGC-7901 cell lysate (UniProt Q9P258); test: as above
GST-PAK4S99A = GST-PAK4S99A (UniProt O96013); test: pull-down; GST or GST fusion proteins from E. coli BL21 immobilised on Glutathione Sepharose 4B; incubated with in vitro translated Flag-tagged protein at 4°C overnight; three washes with lysis buffer; western blot with anti-Flag M2; only the target purified
GST-PAK4S99D = molecular target: T1, GST-PAK4S99D (UniProt O96013); test: as above
T1 sequence: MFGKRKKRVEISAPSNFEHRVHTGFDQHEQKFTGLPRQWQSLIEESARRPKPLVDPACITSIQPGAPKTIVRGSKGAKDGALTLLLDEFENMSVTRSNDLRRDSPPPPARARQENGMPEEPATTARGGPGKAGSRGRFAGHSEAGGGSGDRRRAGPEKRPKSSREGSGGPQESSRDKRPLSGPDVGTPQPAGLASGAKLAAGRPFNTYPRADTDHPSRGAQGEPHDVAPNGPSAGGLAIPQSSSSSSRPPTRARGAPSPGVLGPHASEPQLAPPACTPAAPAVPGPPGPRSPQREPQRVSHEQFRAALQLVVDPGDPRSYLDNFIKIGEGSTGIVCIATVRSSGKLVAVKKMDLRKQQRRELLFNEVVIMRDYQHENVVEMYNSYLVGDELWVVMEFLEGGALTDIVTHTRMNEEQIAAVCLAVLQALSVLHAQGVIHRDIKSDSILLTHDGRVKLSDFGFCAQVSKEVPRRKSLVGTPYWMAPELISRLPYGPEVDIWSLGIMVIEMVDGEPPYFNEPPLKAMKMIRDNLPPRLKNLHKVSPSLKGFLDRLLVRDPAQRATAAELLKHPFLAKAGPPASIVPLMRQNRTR

GST-PAK4 = GST-PAK4 (UniProt O96013); test: as above
GST-RCC2 = GST-RCC2 (UniProt Q9P258); test: as above

| Substance | binding [1] | binding [2] | binding (GST-PAK4S99A) | binding (GST-PAK4S99D) | binding (GST-PAK4) | binding (GST-RCC2) |
| --- | --- | --- | --- | --- | --- | --- |
| PAK4 in gastric cancer cell lysate (from UniProt O96013 1-591) (enzyme) | binds | binds | – | – | – | – |
| PAK4S99A overexpressed in gastric cancer cells (from UniProt O96013 1-591) (enzyme) | binds | – | – | – | – | – |
| in vitro translated Tctex-1 (from UniProt P63172 1-113) | – | – | no binding | no binding | no binding | – |
| in vitro-translated CORO1C (full length, Flag-tagged) (from UniProt Q9ULV4 1-474) | – | – | binds | binds | binds | binds |
